# Experimental data: the supplement of paper PMC12217912
# Some of the results follow. The full chains were built here from the parent and the listed change. Values near 0.05 are background.
# B1: TEV protease; numbered along this chain (parent)
# chain: MGESLFKGPRDYNPISSSICHLTNESDGHTTSLYGIGFGPFIITNKHLFRRNNGTLVVQSLHGVFKVKDTTTLQQHLVDGRDMIIIRMPKDFPPFPQKLKFREPQREERICLVTTNFQTKSMSSMVSDTSCTFPSGDGIFWKHWIQTKDGQCGSPLVSTRDGFIVGIHSASNFTNTNNYFTSVPKNFMELLTNQEAQQWVSGWRLNADSVLWGGHKVFMVKPEEPFQPVKEATQL
# Variants of: B1
# Assay: raw area under fraction-flipped curve 0-4 h after induction (AUC4h, not background-subtracted), DNA-recorder readout of cleavage of the substrate (dimensionless); higher = more cleavage of the substrate by the protease variant
# Settings: temperature: 34 °C; time window: 0-4 h after rhamnose induction
# Protocol: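 In vivo DNA recorder in E. coli TOP10(DE3) ΔrhaA at 34 °C. Each TEVp single-site mutant (parent TEVp 0) is paired with a single-site variant of the 7-mer TEVs (canonical ENLYFQ|S). The substrate sits between flexible linkers in a Bxb1-sfGFP-TEVs-SsrA fusion, so cleavage stabilises Bxb1 and speeds flipping of a recombination array, read by NGS. The value is the raw area under the fraction-flipped curve over 0-4 h after rhamnose induction (AUC4h), with ≥20 reads per time point. It is not background-subtracted; inactive controls average about 0.047.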
# 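Note: Bxb1 expression induced with 0.2% (w/v) L-rhamnose at OD600 near 0.5, cultures sampled hourly, flipped fraction per protease–substrate barcode pair counted by paired-end Illumina sequencing.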
Variant,area with substrate ENLYFAS,area with substrate ENLYFDS,area with substrate ENLYFES,area with substrate ENLYFFS,area with substrate ENLYFHS,area with substrate ENLYFIS,area with substrate ENLYFLS,area with substrate ENLYFMS,area with substrate ENLYFNS,area with substrate ENLYFPS,area with substrate ENLYFRS,area with substrate ENLYFSS,area with substrate ENLYFTS,area with substrate ENLYFVS,area with substrate ENLYFKS,area with substrate ENLYFCS,area with substrate ENLYFGS,area with substrate ENLYFYS,area with substrate ENLYFWS
MGESLFKGPRDYNPISSSICHLTNESDGHTTSLYGIGFGPFIITNKHLFRRNNGTLVVQSLHGVFKVKDTTTLQQHLVDGRDMIIIRMPKDFPPFPQKLKFREPQREERICLVTTNFQTKSMSSMVSDTSCTFPSGDGIFWKHWIQTKDGQCGSPLVSTRDGFIVGIHSASNFTNTNNYFTSVPKNFMEHLTNQEAQQWVSGWRLNADSVLWGGHKVFMVKPEEPFQPVKEATQL [L190H],0.066,0.0573,0.061,0.0652,0.0521,0.0443,0.0612,0.0686,0.0471,0.0646,0.055,0.0513,0.0609,0.0622,,,,,
MGESLFKGPRDYNPISSSICHLTNESDGHTTSLYGIGFGPFIITNKHLFRRNNGTLVVQSLHGVFKVKDTTTLQQHLVDGRDMIIIRMPKDFPPFPQKLKFREPQREERICLVTTNFQTKSMSSMVSDTSCTFPSGDGIFWKHWIQTKDGQCGSPLVSTRDGFIVGIHSASNFTNTNNYFTSVPKNFMELLTNTEAQQWVSGWRLNADSVLWGGHKVFMVKPEEPFQPVKEATQL [Q194T],0.0609,,,0.0727,0.0526,0.0622,0.0703,0.0693,0.0578,,0.0646,,0.0638,0.0845,0.0395,,,,
MGESLFKGPRDYNPISSSICHLTNESDGHTTSLYGIGFGPFIITNKHLFRRNNGTLVVQSLHGVFKVKDTTTLQQHLVDGRDMIIIRMPKDFPPFPQKLKFREPQREERICLVTTNFQTKSMSSMVSDTSCTFPSGDGIFWKHWIQTKDGQCGSPLVSTRDGFIVGIHSASNFTNTNNYFTSVPKNFWELLTNQEAQQWVSGWRLNADSVLWGGHKVFMVKPEEPFQPVKEATQL [M188W],0.0672,0.057,0.0711,0.0621,0.059,0.0562,0.0571,0.0692,0.0595,0.0574,,0.0556,0.0579,0.0741,0.0706,0.059,0.0582,0.0574,
MGESLFKGPRDYNPISSSICHLTNESDGHTTSLYGIGFGPFIITNKHLFRRNNGTLVVQSLHGVFKVKDTTTLQQHLVDGRDMIIIRMPKDFPPFPQKLKFREPQREERICLVTTNFQTKSMSSMVSDTSCTFPSGDGIFWKHWIQTKDGQCGSPLVSTRDGFIVGIHSASNFTNANNYFTSVPKNFMELLTNQEAQQWVSGWRLNADSVLWGGHKVFMVKPEEPFQPVKEATQL [T176A],0.0517,,0.0475,0.063,0.0626,,,,,,,,0.0566,0.0545,0.0697,0.0504,,0.0612,0.0659
MGESLFKGPRDYNPISSSICHLTNESDGHTTSLYGIGFGPFIITNKHLFRRNNGTLVVQSLHGVFKVKDTTTLQQHLVDGRDMIIIRMPKDFPPFPQKLKFREPQREERICLVTTNFQTKSMSSMVSDTSCTFPSGDGIFWKHWIQTKDGQCGSPLVSTRDGFIVGIHSASNFTNTNNYFTSVMKNFMELLTNQEAQQWVSGWRLNADSVLWGGHKVFMVKPEEPFQPVKEATQL [P184M],0.0543,,0.0568,0.0596,0.0497,0.0526,0.054,0.0632,0.0542,0.0512,0.0591,0.0556,0.0578,0.0474,0.0402,0.0651,0.0573,0.0442,0.0546
MGESLFKGPRDYNPISSSICHLTNESDGHTTSLYGIGFGPFIITNKHLFRRNNGTLVVQSLHGVFKVKDTTTLQQHLVDGRDMIIIRMPKDFPPFPQKLKFREPQREERICLVTTNFQTKSMSSMVSDTSCTFPSGDGIFWKHWIQTKDGQCGSPLVSTRDGFIVGIHSASNFTRTNNYFTSVPKNFMELLTNQEAQQWVSGWRLNADSVLWGGHKVFMVKPEEPFQPVKEATQL [N175R],0.0572,0.066,,0.0744,,0.0415,0.0644,0.0535,0.0581,0.0515,,,0.0658,0.0459,0.0526,,0.0711,0.0548,0.0601
MGESLFKGPRDYNPISSSICHLTNESDGHTTSLYGIGFGPFIITNKHLFRRNNGTLVVQSLHGVFKVKDTTTLQQHLVDGRDMIIIRMPKDFPPFPQKLKFREPQREERICLVTTNFQTKSMSSMVSDTSCTFPSGDGIFWKHWIQTKDGQCGSPLVSTRDGFIVGIHSASNFTNTNNYFTSVPKNFMMLLTNQEAQQWVSGWRLNADSVLWGGHKVFMVKPEEPFQPVKEATQL [E189M],0.0516,0.0652,,0.0619,0.0729,0.059,0.0683,0.0643,0.0723,0.049,0.0587,0.0709,0.0606,0.0528,0.0682,0.0719,0.0525,0.0635,
MGESLFKGPRDYNPISSSICHLTNESDGHTTSLYGIGFGPFIITNKHLFRRNNGTLVVQSLHGVFKVKDTTTLQQHLVDGRDMIIIRMPKDFPPFPQKLKFREPQREERICLVTTNFQTKSMSSMVSDTSCTFPSGDGIFWKHWIQTKDGQCGSPLVSTRDGFIVGIHSASNFTNTNNYFPSVPKNFMELLTNQEAQQWVSGWRLNADSVLWGGHKVFMVKPEEPFQPVKEATQL [T181P],0.0472,,0.0482,0.0436,,0.0623,0.0517,0.0579,,0.0465,,0.0359,0.0648,0.0775,0.0557,0.0631,,0.053,0.0522
